The list shows a part of the results.

In the assay the test system is HepG2. In words: cytotoxicity call (relative viability < 0.9). Conditions: 10 µM.
Consider `Cn1c(=O)c2[nH]c(NCCN3CCOCC3)nc2n(C)c1=O`, for which the cytotoxicity call was “inactive”.

`C[C@H](CO)N1C[C@H](C)[C@@H](CN(C)C(=O)c2ccccc2)OCCCC[C@H](C)Oc2ccc(NC(=O)Nc3ccc(F)cc3)cc2C1=O`: the cytotoxicity call was “inactive”.

On to `C[C@@H](O)C#Cc1ccc2c(c1)O[C@@H](CN(C)C(=O)C1CCCCC1)[C@@H](C)CN([C@@H](C)CO)S2(=O)=O`, for which the cytotoxicity call was “inactive”.

For the compound `C[C@@H]1CCCCO[C@H](CN(C)C(=O)c2ccccc2)[C@H](C)CN([C@@H](C)CO)C(=O)c2cc(NC(=O)Cc3ccccc3)ccc2O1`, the cytotoxicity call was “inactive”.

In the case of `CNS(=O)(=O)c1cccs1`, the cytotoxicity call is “inactive”.

Turning to `CN1CCCN=C1C=Cc1cccs1.O=C(O)c1cc2ccccc2c(Cc2c(O)c(C(=O)O)cc3ccccc23)c1O`, the cytotoxicity call is “inactive”.

Take `C[C@@H]1CN([C@@H](C)CO)C(=O)Cc2cc(NC(=O)CCCCCC(=O)Nc3ccccc3N)ccc2O[C@H]1CN(C)S(=O)(=O)c1cn(C)cn1`: the cytotoxicity call was “inactive”.

In the case of `COc1ccccc1CNC(=O)C[C@@H]1C[C@H]2c3cc(NC(=O)C4CCOCC4)ccc3O[C@H]2[C@@H](CO)O1`, the cytotoxicity call was “inactive”.

For the compound `CC(=O)ON1C(C)(C)C=C(C(N)=O)C1(C)C`, the cytotoxicity call was “inactive”.

On to `C[C@@H]1CN([C@@H](C)CO)C(=O)Cc2cc(NC(=O)Cn3cnnn3)ccc2O[C@@H]1CN(C)Cc1ccccc1`, for which the cytotoxicity call is “inactive”.

On to `C[C@@H]1CN([C@@H](C)CO)C(=O)Cc2cc(NC(=O)Cc3ccccc3)ccc2O[C@@H]1CN(C)Cc1ccc(Cl)c(Cl)c1`, for which the cytotoxicity call was “active”.

Regarding `CCN1C(=O)CN(CC(=O)O)C1=O`, the cytotoxicity call was “inactive”.

As to `C=CCCC(=O)O[C@@H](c1ccccc1)[C@@H](C)N(C)C(=O)[C@H](CC=C)NC(=O)OCC1c2ccccc2-c2ccccc21`, the cytotoxicity call was “inactive”.

For the compound `C[C@H](CO)N1C[C@H](C)[C@@H](CN(C)Cc2ccc(-c3ccccc3)cc2)Oc2c(NC(=O)NC3CCCCC3)cccc2C1=O`, the cytotoxicity call is “inactive”.

Take `Cn1cnc(S(=O)(=O)N2C[C@H](O)COC[C@@H]3O[C@@H](CC(=O)NCc4cc(F)cc(F)c4)CC[C@H]32)c1`: the cytotoxicity call was “inactive”.

In the case of `CN1C(=O)c2cc(NC(=O)c3cnccn3)ccc2OC[C@H]2O[C@@H](CC(=O)N[C@@H]3CCN(Cc4ccccc4)C3)CC[C@@H]21`, the cytotoxicity call was “inactive”.

On to `CCS(=O)(=O)Nc1ccc2c(c1)C(=O)N(C)[C@H]1CC[C@H](CC(=O)NCc3ccccc3F)O[C@H]1CO2`, for which the cytotoxicity call was “inactive”.

Take `O=C(C[C@@H]1CC[C@@H]2[C@H](COC[C@H](O)CN2S(=O)(=O)c2cccc(Cl)c2)O1)NCCCN1CCOCC1`: the cytotoxicity call is “inactive”.

On to `CCCCCCc1ccc(O)cc1O`, for which the cytotoxicity call was “active”.

Take `CCCNC1CCc2nc(N)sc2C1.Cl.Cl` (configuration not stated): the cytotoxicity call is “inactive”.

Regarding `C[C@H]1CN([C@@H](C)CO)C(=O)Cc2cc(NS(C)(=O)=O)ccc2O[C@@H]1CN(C)Cc1ccc2c(c1)OCO2`, the cytotoxicity call was “inactive”.

`C[C@@H]1CN([C@@H](C)CO)C(=O)c2cc(NC(=O)Nc3ccccc3)ccc2O[C@@H](C)CCCCO[C@H]1CN(C)Cc1ccc(C(=O)O)cc1`: the cytotoxicity call is “inactive”.

Turning to `C[C@@H]1CC[C@@]2(OC1)O[C@H]1C[C@H]3[C@H]4C[C@@H](O)[C@H]5C[C@@H](O[C@@H]6O[C@H](CO)[C@H](O[C@@H]7O[C@H](CO)[C@@H](O)[C@H](O[C@@H]8OC[C@@H](O)[C@H](O)[C@H]8O)[C@H]7O[C@@H]7O[C@H](CO)[C@@H](O)[C@H](O)[C@H]7O)[C@H](O)[C@H]6O)CC[C@]5(C)[C@@H]4CC[C@]3(C)[C@H]1[C@@H]2C`, the cytotoxicity call was “active”.

As for `CC(=O)N(C)C[C@H]1Oc2ncc(C#C[C@@H](C)O)cc2C(=O)N([C@H](C)CO)C[C@H]1C`, the cytotoxicity call was “inactive”.

For `N[C@@H]1CCCN(c2c(Br)cnc3[nH]cc(NC(=O)C4CC4)c23)C1`, the cytotoxicity call is “inactive”.

For the compound `COC[C@@H]1CN(C)C(=O)[C@H]2CCN(S(=O)(=O)N(C)C)CC[C@@H]12`, the cytotoxicity call is “inactive”.

Turning to `CC(=O)C1C(=O)C=C(C)OC1=O` (configuration not stated), the cytotoxicity call is “inactive”.

Turning to `COc1cc(OC)c(C(=O)CCCN2CCCC2)c(OC)c1.Cl`, the cytotoxicity call is “inactive”.

With `C[C@H](CO)N1C[C@H](C)[C@H](CN(C)Cc2ccc(C(=O)Nc3ccccc3N)cc2)Oc2ccc(NS(=O)(=O)c3cn(C)cn3)cc2CC1=O`, the cytotoxicity call was “inactive”.

For `C[C@H]1CN([C@@H](C)CO)C(=O)Cc2cc(NS(=O)(=O)c3ccc(Cl)cc3)ccc2O[C@H]1CN(C)Cc1ccc(-c2ccccc2)cc1`, the cytotoxicity call was “active”.

For `O=C(C[C@H]1CC[C@@H]2[C@H](COC[C@H](O)CN2C(=O)Nc2cc(Cl)cc(Cl)c2)O1)N1CCOCC1`, the cytotoxicity call was “inactive”.

Consider `COCCNC(=O)C[C@@H]1CC[C@@H]2[C@H](COc3ccc(NS(=O)(=O)c4ccc(Cl)cc4)cc3C(=O)N2C)O1`, for which the cytotoxicity call is “inactive”.

Values taken from the antibiotic and cytotoxicity screens of Wong et al. (2023).
